From article PMC4336329 (PLoS ONE, 2015)
Among all 310,000 compounds or so, about 2,200 (0.71%) showed an effect of 50% or more. The effect is printed as a negative number. The list shows a part of the results.

Each molecule was assayed against human ether-à-go-go-related gene (hERG) potassium channel (human, UniProt Q12809) (assay: primary screen, population patch clamp on CHO cells stably expressing hERG).
Sequence of human ether-à-go-go-related gene (hERG) potassium channel (Q12809 whole entry, looked up): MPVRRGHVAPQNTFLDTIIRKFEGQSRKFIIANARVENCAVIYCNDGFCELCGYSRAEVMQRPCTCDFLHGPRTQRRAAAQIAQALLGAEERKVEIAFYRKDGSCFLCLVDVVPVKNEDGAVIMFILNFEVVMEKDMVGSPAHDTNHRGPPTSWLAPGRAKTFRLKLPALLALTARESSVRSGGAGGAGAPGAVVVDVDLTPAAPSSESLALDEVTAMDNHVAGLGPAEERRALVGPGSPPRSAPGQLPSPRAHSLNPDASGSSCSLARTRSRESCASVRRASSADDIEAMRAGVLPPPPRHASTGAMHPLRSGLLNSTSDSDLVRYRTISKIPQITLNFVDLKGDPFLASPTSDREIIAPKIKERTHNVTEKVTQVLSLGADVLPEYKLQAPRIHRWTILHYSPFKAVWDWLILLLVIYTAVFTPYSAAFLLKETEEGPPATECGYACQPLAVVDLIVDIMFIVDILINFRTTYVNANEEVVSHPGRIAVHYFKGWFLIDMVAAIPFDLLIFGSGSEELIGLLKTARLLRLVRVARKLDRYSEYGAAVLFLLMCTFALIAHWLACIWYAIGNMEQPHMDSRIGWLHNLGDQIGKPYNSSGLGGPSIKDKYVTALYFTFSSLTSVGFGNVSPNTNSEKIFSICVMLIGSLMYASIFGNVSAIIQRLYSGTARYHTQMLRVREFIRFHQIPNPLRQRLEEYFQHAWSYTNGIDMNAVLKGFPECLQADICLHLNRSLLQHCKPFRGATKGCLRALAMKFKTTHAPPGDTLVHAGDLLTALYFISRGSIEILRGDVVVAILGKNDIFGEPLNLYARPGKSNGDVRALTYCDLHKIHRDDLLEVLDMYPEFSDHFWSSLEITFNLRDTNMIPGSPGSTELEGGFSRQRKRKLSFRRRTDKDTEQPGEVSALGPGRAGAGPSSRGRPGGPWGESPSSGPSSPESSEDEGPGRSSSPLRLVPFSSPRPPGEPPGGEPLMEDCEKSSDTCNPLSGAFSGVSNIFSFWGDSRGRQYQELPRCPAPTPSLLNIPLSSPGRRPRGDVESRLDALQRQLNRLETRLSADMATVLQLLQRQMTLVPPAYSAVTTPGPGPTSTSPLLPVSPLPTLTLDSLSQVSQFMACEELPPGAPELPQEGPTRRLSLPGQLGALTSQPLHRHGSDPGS

| SMILES | hERG current change (%, negative = inhibition) at 1uM |
| --- | --- |
| Nc1ncnc2c1ncn2[C@@H]1O[C@H](COP(=O)(O)O)[C@@H](O)[C@H]1O.O | 1.63% |
| COC(=O)c1ccc(OC(=O)c2cccs2)cc1 | 15.5% |
| Cc1ccc(CSc2n[nH]c(N)n2)cc1 | -0.22% |
| CCOC(=O)N1CCN(C(=O)C2CCN(S(=O)(=O)c3ccc(NC(C)=O)cc3)CC2)CC1 | 10.3% |
| CN(CCNC(=O)c1ccc(N2CCCC2=O)cc1)CCc1ccccc1 | -22% |
| Cc1cc(Cl)ccc1NC(=S)NCC(C)C | 8.4% |
| CCC(C)(C)n1nnnc1C(c1ccccn1)N1CCCCC1 (centres unmarked) | 4.32% |
| NC(=O)C1=C[C@@H](c2ccc(C(F)(F)F)cc2)C[C@@H](OCCCCO)O1 | 9.27% |
| COc1ccc(C(=O)NCc2cnn(C)c2C)cc1OC1CCN(C(C)C)CC1 | 15.7% |
| COc1ccc(-c2noc(C3CCCN(C(=O)c4c(F)cccc4F)C3)n2)cc1OC (centres unmarked) | 10.9% |
| Cc1ccn(C(=O)c2cc3cc(Cl)ccc3oc2=O)n1 | 9.39% |
| CCc1ccc(-c2cc(C(F)(F)F)n3nc(C(=O)Nc4c(C)nn(Cc5ccccc5Cl)c4C)cc3n2)s1 | 8.69% |
| COc1ccccc1-c1cc(C(F)(F)F)nc(N2CCCC2)n1 | 20.3% |
| COc1ccc(/C=C2/C(=O)ON=C2c2ccccc2)cc1OC | 4.35% |
| CC(O)CNc1nc2c(c(=O)n(Cc3cccc(Cl)c3)c(=O)n2C)n1C (centres unmarked) | 10.6% |
| CS(=O)(=O)Nc1cccc(C2=NN(C(=O)c3ccccc3Cl)C(c3ccccc3O)C2)c1 (centres unmarked) | 5.82% |
| Cc1ccc(NC(=S)NCc2ccc3c(c2)OCO3)c(C)c1 | 8.68% |
| Cc1cccnc1NC(=O)Nc1cccc(C(F)(F)F)c1 | -18.9% |
| Cc1ccc2c(c1)nnn2C1CCN(S(=O)(=O)c2ccc(C(=O)N(C)C3CCCCC3)cc2)CC1 | 13.9% |

| SMILES | hERG current change (%, negative = inhibition) at 1uM |
| --- | --- |
| COc1ccc2[nH]c(=O)c(CN(Cc3ccco3)Cc3nnnn3Cc3ccccc3)cc2c1 | 9.85% |
| O=C(NCCc1nccs1)C1CCC(=O)N(Cc2cccc(C(F)(F)F)c2)C1 (centres unmarked) | 5.62% |
| O=C(COC(=O)c1ccc(CN2CCCC2=O)cc1)Nc1ccc(F)cc1 | 7.31% |
| Cc1ccc(C)c(/C=C2\CCn3c2nc2cc(C(=O)O)ccc2c3=O)c1 | 13.2% |
| COc1cc(CNCCO)cc(Cl)c1OCc1ccc(Cl)cc1Cl.Cl | 6.8% |
| CCOC(=O)/C(C#N)=C(\N)C(C)C(=O)Nc1ccccn1 (centres unmarked) | 2.14% |
| Nc1ccc(Oc2ncccn2)c(Cl)c1 | 7.14% |
| O=C(Nc1cccc2ccccc12)N1CC=CCC1 | 6.35% |
| O=C(c1ccccc1)N1CCN(CC#CC2(O)CCCCC2)CC1 | 17.8% |
| Cc1cc(Nc2ccccc2)n(C(=O)c2ccc(N)cc2)n1 | -1.63% |
| CCCN(CCC)CCCNC(=O)c1cn(CC)c2ccc(S(=O)(=O)N(C)C3CCCCC3)cc2c1=O | -46.1% |
| CCn1c(C)nc2cc(C(N)=O)ccc21 | 16.7% |
| O=C(COC(=O)c1ccc(Br)o1)NCC(=O)Nc1ccc(F)cc1 | 9.38% |
| Cc1nn(CC(=O)Nc2ccc3c(c2)OCO3)c(C)c1[N+](=O)[O-] | -0.0306% |
| CCN(Cc1ccncc1)C(=O)c1cc(Br)cc(Br)c1O | 8.5% |
| CC1CCN(C(=O)C2CCN(S(=O)(=O)c3cnc[nH]3)CC2)CC1 | 7.57% |
| CCOC(=O)N1CC=C2C(C#N)=C(N)C(C#N)(C#N)[C@H](c3cccs3)[C@H]2C1 | -10.1% |
| Cc1cc(N)c(-n2cc3c(=O)n(C)c(=O)n(C)c3c2)cc1C | 3.23% |
| Cn1c(=O)n(Cc2ccccc2)c(=O)c2c1nc1n2CCCN1C1CCCCC1 | -0.59% |

| SMILES | hERG current change (%, negative = inhibition) at 1uM |
| --- | --- |
| Cc1ccc(S(=O)(=O)N2CCCCC2)cc1C(=O)NCCc1ccccc1 | 9.39% |
| Cc1ccc(NC(=O)c2ccc(=O)[nH]c2)cc1S(=O)(=O)N1CCCCC1 | 5.65% |
| CCOC(=O)c1cc2c(ccn2-c2ccc(F)cc2)n1CC(=O)N(CC)CC | -0.733% |
| COc1ccc(OCC(=O)Nc2ccncc2)cc1 | 8.47% |
| CN(CC(=O)Nc1cccc(Cl)c1)S(=O)(=O)c1ccc2[nH]c(=O)oc2c1 | 9.95% |
| OC(c1ccccc1)c1nc2ccccc2s1 (centres unmarked) | 1.13% |
| C=C(C)c1sc(-c2ccc(Cl)cc2)nc1C | 18.2% |
| COc1ccc(-c2cc(C(=O)N/N=C/c3cccnc3)c3cc(C)cc(C)c3n2)cc1 | 12.6% |
| O=C(COc1ccccc1Cl)Nc1ccc(C(=O)c2ccc(C(=O)O)cc2)cc1 | 17.7% |
| O=S(=O)(c1ccc(OCC(O)CN2CCN(c3ccccc3Cl)CC2)cc1)N1CCOCC1 (centres unmarked) | 0.0986% |
| COC(=O)c1ccc(C)c(NC(=O)Cc2ccc([N+](=O)[O-])cc2)c1 | 9.39% |
| CCN1CCN(c2ccc(NC(=O)c3ccccc3F)cc2Cl)CC1 | -16.5% |
| COc1ccc(C(C(O)C(=O)c2c[nH]c3ccccc23)N2CCN(c3ccc(OC)cc3)CC2)cc1 (centres unmarked) | 2.28% |
| Cc1cc2nnc(SCC(=O)N3CCCCCC3)n2c(N)n1 | 5.65% |
| CC(C)CC(=O)N1CCN(Cc2cccc(Cl)c2)CC1 | 10.6% |
| CC(C)(C)C(=O)Cn1ncc(N2CCCC2)c(Br)c1=O | 7.65% |
| CCOC(=O)c1c(C)c(C(=O)NCCCOC)c(C)n1C | 6.53% |
| O=C(NCc1ccccc1)c1onc(CS(=O)(=O)c2ccc(Cl)cc2)c1C(=O)NCc1ccccc1 | 8.43% |
